# From PubChem BioAssay AID1832 (Broad Institute, 2009)
# Hit rate of the full screen: of about 300,000 compounds, about 1,100 (0.37%) were called active. The shares of active, inactive and inconclusive entries below differ from those in the screen.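 The calls were made as follows: active = inhibition past about -25% in most replicates, and total fluorescence under double the plate's negative control median (limit read from the data); inconclusive = replicates evenly split on the limit, or fluorescence at least double controls; inactive = too little inhibition in most replicates.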
# Target: Zinc finger protein mex-5 (Caenorhabditis elegans) (UniProt Q9XUB2)
# Assay: MEX-5 zinc finger RNA-binding disruptors – biochemical, C. elegans, fluorescence polarization, MLPCN library, primary screen (AID 1832);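 also: 0% = DMSO and -100% = 5 µM competing unlabeled TCR2 RNA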
# Conditions: MEX-5/FITC-TCR2 RNA binding, at 10 µM, hits give low values
# Chain of UniProt Q9XUB2 (Q9XUB2 whole entry, looked up): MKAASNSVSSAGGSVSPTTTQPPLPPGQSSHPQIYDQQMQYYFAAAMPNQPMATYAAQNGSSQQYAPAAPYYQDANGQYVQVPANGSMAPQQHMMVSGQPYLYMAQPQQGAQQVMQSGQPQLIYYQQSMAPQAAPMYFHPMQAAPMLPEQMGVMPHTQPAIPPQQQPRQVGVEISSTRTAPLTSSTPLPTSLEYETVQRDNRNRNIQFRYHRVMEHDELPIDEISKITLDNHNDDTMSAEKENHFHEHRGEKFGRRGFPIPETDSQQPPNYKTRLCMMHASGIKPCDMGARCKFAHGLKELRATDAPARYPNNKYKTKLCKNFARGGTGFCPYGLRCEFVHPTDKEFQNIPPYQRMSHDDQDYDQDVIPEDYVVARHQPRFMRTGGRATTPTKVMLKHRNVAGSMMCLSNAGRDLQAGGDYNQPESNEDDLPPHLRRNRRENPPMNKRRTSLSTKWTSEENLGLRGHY
row,SMILES,activity score (negative = inhibition of binding)
1,O=C(/C=C/Nc1ccc([N+](=O)[O-])cc1)c1ccc(Br)cc1,inconclusive: -22.9%
2,Nc1c(C(=O)C2CC2)sc2nc(-c3ccccc3)cc(C(F)(F)F)c12,inconclusive: 42% [fluorescent]
3,CCSc1nnc(-c2sc3nnc(-c4ccccc4)c(-c4ccccc4)c3c2N)o1,inconclusive: -93.7% [fluorescent]
4,CC(C)OP(=O)(CCP(=O)(OC(C)C)OC(C)C)OC(C)C,inactive: 1.52%
5,Cn1cc(C2=C(c3ccc(Cl)cc3Cl)C(=O)NC2=O)c2ccccc21,inconclusive: -17.3%
6,CC12CCC(=O)N1C(C(=O)OCC(=O)Nc1sccc1C#N)CS2 (stereo not drawn),inactive: -12.6%
7,Cc1ccc(C)n1-c1cccc(C(=O)O)c1,active: -92.9%
8,O=C(O)c1ccc(NS(=O)(=O)c2ccc3c(c2)C(=O)c2ccccc2C3=O)cc1,inconclusive: -25.2%
9,CC[n+]1ccc(/C=C/c2c[nH]c3ccccc23)cc1,inconclusive: 35.9% [fluorescent]
10,CCOC(=O)/C(=C\C=C1/Sc2cc(OCC)c(OCC)cc2N1CC)C(C)=O,inconclusive: 54% [fluorescent]
11,O=C(O)CN1C(=O)/C(=C\c2cn(CC(=O)N3CCOCC3)c3ccccc23)SC1=S,inconclusive: 33.5% [fluorescent]
12,CSc1nc(N)c(C(=O)Nc2ccc([N+](=O)[O-])cc2)s1,inactive: -3.82%
13,CCOCCCNc1nc2c(C)cccn2c(=O)c1/C=C1\SC(=S)N(C(C)CC)C1=O (stereo not drawn),inconclusive: 35.5% [fluorescent]
14,CCOC(=O)c1c(/N=C/C2C(=O)CC(C)(C)CC2=O)sc(C)c1C,inconclusive: -8.19%
15,CC(=O)N1CSCC1C(=O)NNS(=O)(=O)c1ccccc1 (stereo not drawn),inactive: -1.66%
16,Cc1nc2ccccc2n2c(O)c(CC(=O)O)cc12,inconclusive: -98.7% [fluorescent]
17,COc1cc(NC(=O)CSc2nnc3ccc(-c4ccncc4)nn23)cc(OC)c1,inconclusive: -18.6%
18,CN(C)C=Nc1c(Br)cc(Br)c2nonc12,inconclusive: 35.2% [fluorescent]
19,Cc1nc(NC(=O)C2CC2)sc1C(=O)Nc1ccccc1,inactive: -2.79%
20,CCN1/C(=C\C=C(C(C)=O)C(C)=O)Sc2ccccc21,inconclusive: 47.1% [fluorescent]
21,COc1cc2c3nnc(-c4ccc(F)cc4)c-3cn(Cc3ccc(F)cc3)c2cc1OC,inconclusive: -64.9% [fluorescent]

row,SMILES,activity score (negative = inhibition of binding)
1,CC(C)CCNC(=O)C1CC(=O)N(C2CCCC2)C1 (stereo not drawn),inactive: 2.29%
2,Cc1ccc(S(=O)(=O)N(C)Cc2ccc(C(=O)NN=C3C4CC5CC(C4)CC3C5)cc2)cc1,inactive: 0.614%
3,CCN(CC)C(=O)c1ccc(/C=C/c2c[nH]c3ccccc23)[n+](C)c1,inconclusive: 66.6% [fluorescent]
4,CCCCNC(=S)N(CCO)Cc1cc2cc3c(cc2[nH]c1=O)OCCO3,inactive: -1.88%
5,COCCCNC(CC(=O)Nc1cc(C)cc(C)c1)C(=O)O (stereo not drawn),inconclusive: -12.4%
6,CCCCOC(=O)CSC1=C(C#N)C(c2ccccc2OCC)C(C#N)C(=O)N1 (stereo not drawn),inconclusive: -24.1%
7,CC(=O)c1ccc(NC(=O)CSc2nnc(-c3ccncc3)o2)cc1,inconclusive: -13.9%
8,Cc1ccc(NC(=S)c2ccc3ccccc3n2)c(C)c1,active: -37.9%
9,COc1ccccc1N1C(=O)c2ccc(C(=O)Nc3ccccc3O)cc2C1=O,inactive: 1.84%
10,CCCCOc1ccc(N(CC(=O)NCCOC)C(=O)CCC(=O)Nc2ccccn2)cc1,inactive: -0.558%
11,CCN(c1ccccc1)S(=O)(=O)c1ccc(NC(=O)c2nc(S(C)(=O)=O)ncc2Cl)cc1,inactive: -1.86%
12,CCn1c(/C=C/c2c(C)[nH]c3ccccc23)nc2ccccc2c1=O,inconclusive: -11.9%
13,COc1ccc(-c2cc(C(F)(F)F)n3nc(C(=O)NCCCn4ccnc4)cc3n2)cc1,inactive: 2.93%
14,O=c1[nH]c2ccccc2nc1-c1c[nH]c2ccccc12,inactive: -2.77%
15,COc1ccc(CCC(=O)Nc2cccc(Cl)c2)cc1,inconclusive: -14.1%
16,N#CCC(N)=C(C#N)C#N,active: -37.6%
17,Cc1ccccc1S(=O)(=O)N(CC(O)CN1C(=O)NC(C)(C)C1=O)c1ccccc1 (stereo not drawn),inactive: -0.867%
18,Cc1c(NC(=O)c2coc(=O)c(Br)c2)c(=O)n(-c2ccccc2)n1C,active: -44.8%
19,COc1ccc2nc3cc(Cl)ccc3c(Nc3cc(C(C)C)c(O)cc3C)c2c1,inactive: -0.681%
20,CC1CN(Cc2c(O)ccc3c2oc(=O)c2ccccc23)CC(C)O1 (stereo not drawn),active: -28.6%
21,O=C(O)c1ccccc1C1=Nc2ccc(O)cc2Oc2cc(O)ccc21,inconclusive: -91.9% [fluorescent]

row,SMILES,activity score (negative = inhibition of binding)
1,CN(C)/C=C/C(=O)c1cnc(-c2ccccc2Cl)s1,inconclusive: -19.7%
2,COc1ccc(OC)c(NC(=O)c2sc3nc(Cc4ccccc4)cc(C(F)(F)F)c3c2N)c1,inconclusive: -2.86% [fluorescent]
3,O=C(N/N=C/c1c(O)ccc2ccccc12)Nc1ccccc1,inconclusive: -19.5%
4,CC(C)OC(=O)C(C#N)c1nc2ccccc2nc1N1CCCC1 (stereo not drawn),inconclusive: -15.2%
5,Oc1ccc(-c2cnns2)c(O)c1,active: -61.4%
6,COC(=O)c1cc2c(C)c(C)c3ccccn3c-2c1C(=O)OC,inconclusive: 5.71% [fluorescent]
7,Cc1ccc(OCC(O)CN2CCC(Cc3ccccc3)CC2)c(C)c1 (stereo not drawn),inactive: 3.61%
8,Cc1ccc2[nH]c(O)c(N=Nc3ccccc3C)c2c1,inconclusive: -24.2%
9,CCC(C)n1c(SCC(=O)NC2CCS(=O)(=O)C2)nc2ccccc2c1=O (stereo not drawn),inactive: 3.62%
10,COCCCn1c(=O)/c(=C\c2ccccc2OC(C)C)s/c1=C(/C#N)C(=O)Nc1ccc(C(=O)O)cc1,inconclusive: 20.8% [fluorescent]
11,CCNC(=O)c1cc2c(=O)n3cccc(C)c3nc2n(CCc2ccccc2)c1=N,active: -65.8%
12,CN(C)c1ccc(/C=C2\SC(=O)N(CC(O)Cn3c4ccccc4c4ccccc43)C2=O)cc1 (stereo not drawn),inconclusive: -14.5%
13,N#C/C(=C\c1coc2ccc(O)cc2c1=O)C(=O)Nc1nc2ccccc2s1,inconclusive: -13% [fluorescent]
14,COc1ccc(CCNC(=O)c2cc3c(=O)n4cccc(C)c4nc3n(CCCN3CCOCC3)c2=N)cc1,inconclusive: -24.1%
15,Cc1[nH][nH]c(=O)c1C(c1ccc(-c2cccc(C(=O)O)c2)o1)c1c(C)[nH][nH]c1=O,active: -51.9%
16,O=C/C(=C\Nc1ccccn1)c1nc2cc(Cl)ccc2o1,inconclusive: -24.2%
17,CC(=O)C1=NN(c2ccc(Cl)cc2)C(c2ccc3c(c2)OCO3)N(C(C)=O)N1C (stereo not drawn),inactive: -1.11%
18,Nc1c(Cl)cc(-c2[nH]c3cc(C(=O)NCCO)ccc3c(=O)c2O)cc1Cl,inconclusive: -110% [fluorescent]
19,CCC(Sc1nc(C)cc(C)n1)C(=O)Nc1nccs1 (stereo not drawn),inactive: 3.19%
20,O=c1[nH]n2c(=O)c3c([nH]c2c1N=Nc1ccccc1)CCC3,inconclusive: -24.2%
21,O=C(/C=C/c1ccc(O)c(O)c1)OC(Cc1ccc(O)c(O)c1)C(=O)O (stereo not drawn),active: -53.3%

row,SMILES,activity score (negative = inhibition of binding)
1,CCN(CC)c1ccc(/C=c2\sc3nnc(-c4ccccc4Cl)n3c2=O)cc1,inconclusive: -46.9% [fluorescent]
2,c1ccc2[nH]c3cc4ncnc4cc3nc2c1,active: -81.1%
3,CCNc1nn2ccccc2c1/C=C(\C#N)C(=O)OCC,active: -63.3%
4,CC(=O)Nc1ccc(NC(=O)CCC(=O)OCC(=O)c2cccc([N+](=O)[O-])c2)cc1,inactive: 1.71%
5,O=[n+]1c2c(n([O-])c3cc(F)c(N4CCCC4)cc31)CCC2,inconclusive: -58% [fluorescent]
6,O=S(=O)(O)c1cc(O)c2c(O)c(N=Nc3cc(Cl)ccc3O)c(S(=O)(=O)O)cc2c1,active: -46%
7,CCOCCCNc1nc2nc3ccc(C)cn3c(=O)c2cc1C(=O)NCC1CCCO1 (stereo not drawn),active: -34%
8,Nc1nc(Sc2ccc([N+](=O)[O-])cc2[N+](=O)[O-])n[nH]1,inconclusive: -24.9%
9,c1coc(-c2nc3ccccc3nc2-c2ccco2)c1,inconclusive: -21.5%
10,CCCCC1=CC2=CC(=O)C(C)(O)C(=O)C2=CO1 (stereo not drawn),inconclusive: -24.8%
11,O=C(NCCN1CCOCC1)c1cccn2c(=O)c3c4c(sc3nc12)CCCC4,inconclusive: -7.69%
12,COc1cc(/C=N/NS(=O)(=O)c2ccc(C)c([N+](=O)[O-])c2)cc([N+](=O)[O-])c1O,inactive: -8.11%
13,CC(C)(C)c1cc[n+](-c2[nH]c(=O)sc2/C=N/NC([S-])=Nc2ccccc2)cc1,inconclusive: -114% [fluorescent]
14,O=C(Nc1cc(=O)[nH]c2ncnn12)c1ccc(Cl)cc1Cl,inconclusive: -14.2%
15,COc1cc(S(=O)(=O)Nc2ccc(C)cc2)ccc1N=Cc1c(C)c(C#N)c(=O)n(C)c1O,inconclusive: -84.7% [fluorescent]
16,COc1ccc(CCNC(=O)COc2nsnc2N2CCOCC2)cc1OC,inactive: -4.28%
17,CCN(CC(=O)Nc1cc(S(=O)(=O)N2CCOCC2)ccc1C)Cc1ccccc1,inactive: 0.543%
18,N#Cc1cc(NC(=O)c2ccc(F)cc2)c(=O)n2c1[nH]c1ccccc12,inconclusive: -21.4%
19,CCNC(=S)N/N=C/c1sc(N2CCCCC2)nc1-c1cccs1,inconclusive: -23%
20,COc1ccc(CNC(=O)C2CCCN2S(=O)(=O)c2ccc(F)cc2)cc1 (stereo not drawn),inactive: 1.32%
